56 sequences from the supplement of paper PMC11417369 can be followed below.

± gives the standard deviation of the averaged measurements. This is one part of the list.

The assay concerns PfAP2-EXP AP2 domain (GST-tagged). As to the kind of experiment: gcPBM binding intensity (ln(normalized median fluorescence intensity)); higher = stronger DNA binding. In a few lines:
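Alexa488 anti-GST antibody, scanned at 488 nm, detected GST-tagged P. falciparum DNA-binding domains that had been expressed in E. coli and incubated for 1 h on an Agilent 4 × 180k array. The array carried primer-extended double-stranded 36-bp intergenic genomic probes and negative controls. Binding intensity is the highest Masliner-normalised natural-log median intensity across replicate spots of either orientation of each probe.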
As to “TGATAACCTAATAATACACACACATGAATATATATA [CACACA_site8226]”, the “gcPBM binding intensity (ln)” value is 8.61 ± 0.32.

“ATATTTAGGATTATCTGTACATAATATGTTTAATTA [XGTACX_site3426]”: the “gcPBM binding intensity (ln)” value came to 8.44 ± 0.4.

For the sequence “TACACATAATATAATGCATGTGTGATGTATGTTTAA [TGCATGCA_site697]”, the “gcPBM binding intensity (ln)” value is 8.65 ± 0.35.

With “ATTAAAAAATTATTCACACAAAATAAAAAAATGAAA [CACACA_site4918]”, the “gcPBM binding intensity (ln)” value came to 8.5 ± 0.51.

For “AAAATTATTTTTATGTGTACTTATTTATTATTTATA [XGTACX_site6665]”, the “gcPBM binding intensity (ln)” value stood at 8.55 ± 0.28.

For the sequence “TTGTATTCCTTTTACAACTACCATGAAGAGAATTTT [CACACA_negctrl_site1286]”, the “gcPBM binding intensity (ln)” value was 8.46 ± 0.38.

For the sequence AAAAAAAAAAAAAAGGTGCAAATAAATTAACCTTAT, the “gcPBM binding intensity (ln)” value amounted to 8.71 ± 0.36.

Regarding “AAAAAAAACGCACATACACACACACCCATATATATA [CACACA_site9118]”, the “gcPBM binding intensity (ln)” value came out at 8.72 ± 0.3.

With “AAATGTTAAAATGACAGTACATATATAAAAAAAAAA [XGTACX_site3936]”, the “gcPBM binding intensity (ln)” value was determined as 8.65 ± 0.38.

As for “TTTTATTTTTTCCGACGTACATCCATTATATATAAT [XGTACX_site4469]”, the “gcPBM binding intensity (ln)” value is 9.1 ± 0.54.

Consider “CTAGGAAATTATATGGGTACTCATATTCATAAAAAA [XGTACX_site1846]”, for which the “gcPBM binding intensity (ln)” value was 8.45 ± 0.42.

Consider “AAATATTTGGAGAAATGTACATATTATAAATATATT [XGTACX_site6885]”, for which the “gcPBM binding intensity (ln)” value was determined as 8.72 ± 0.4.

As for “TAAAAAAAAGGAAATACATGCATCTACATATATATA [TGCATGCA_site500]”, the “gcPBM binding intensity (ln)” value is 8.7 ± 0.14.

Regarding “AAAAACTAACTGTATTGTACTCTCTTATAAATTCAC [XGTACX_site8967]”, the “gcPBM binding intensity (ln)” value is 8.41 ± 0.33.

On to “ATATATTTCATTTTTGTACACACAACGTTGGAGGGT [CACACA_site8999]”, for which the “gcPBM binding intensity (ln)” value is 8.84 ± 0.39.

For the sequence “AAAAAAAAAATATATATATATATATAATATATATAT [TGCATGCA_negctrl_site329]”, the “gcPBM binding intensity (ln)” value is 9.2 ± 0.11.

“ATATAGGTAATAATAATACACACGGTGAAATATAGA [CACACA_site4040]”: the “gcPBM binding intensity (ln)” value is 8.85 ± 0.32.

Take “TATTGTAAAGTGTCATTATTACGTTATATTATATAT [CACACA_negctrl_site98]”: the “gcPBM binding intensity (ln)” value turned out to be 8.42 ± 0.37.

For the sequence “GACAATATTAAAACATGTACATGCATTTTATGAATA [XGTACX_site553]”, the “gcPBM binding intensity (ln)” value was determined as 8.96 ± 0.29.

Regarding “TATAATATAAAATATGCACACATTGGAATGGGAGAA [CACACA_site3746]”, the “gcPBM binding intensity (ln)” value was found to be 8.97 ± 0.35.

As for “AAAAAATTTATAAAAGCACACAAAATAAAAAAAAAT [CACACA_site8420]”, the “gcPBM binding intensity (ln)” value was 8.69 ± 0.48.

“TATAAAGACACGTACACACACTAAGTATATCCAATA [CACACA_site6855]”: the “gcPBM binding intensity (ln)” value was 8.54 ± 0.42.

Turning to “ATATAAGTATACACATGTACATATTTCTTATGTATA [XGTACX_site2854]”, the “gcPBM binding intensity (ln)” value turned out to be 8.68 ± 0.41.

Turning to “GTATGATGTGAACATTGTACGAATGAATATATCTAA [XGTACX_site3789]”, the “gcPBM binding intensity (ln)” value is 8.39 ± 0.36.

Take “AAAATGTTAAATATTAAATATGAAACAAAAAAAAAA [GTGCAC_negctrl_site211]”: the “gcPBM binding intensity (ln)” value was found to be 8.42 ± 0.55.

Take “TCCAAATGAAAAAATTGTACATATTTTATCATATAT [XGTACX_site6159]”: the “gcPBM binding intensity (ln)” value is 8.39 ± 0.34.

For the sequence “TAAATACATTTATATACACACCTATATATATATATA [CACACA_site5137]”, the “gcPBM binding intensity (ln)” value was found to be 10 ± 0.54.

For the sequence “TATAATTTAAAATACACACACATATATATAATATAT [CACACA_site2000]”, the “gcPBM binding intensity (ln)” value stood at 8.61 ± 0.67.

As to “ATAAGAAATTTCATACGTACATAAATAAATATATAT [XGTACX_site2932]”, the “gcPBM binding intensity (ln)” value stood at 8.68 ± 0.2.

In the case of “AAAATTTATTATCTATATAATAATATGAAACAAAAC [GTGCAC_negctrl_site731]”, the “gcPBM binding intensity (ln)” value was 8.8 ± 0.39.

In the case of “TTTCATTTTTGAAGGTGTACTTAAAATTTATGTAAT [XGTACX_site6671]”, the “gcPBM binding intensity (ln)” value came out at 8.37 ± 0.28.

Regarding CTCATTTTGTTAATGGTGCAAAAAAAAAAAAAAAAA, the “gcPBM binding intensity (ln)” value turned out to be 8.49 ± 0.22.

Consider “ATGAAAAAAAGACATGCATGTAAATATAAATTGCTT [TGCATGCA_site504]”, for which the “gcPBM binding intensity (ln)” value was found to be 9.47 ± 0.28.

As to “TATTTAAAACTATACACATGCATTATATAAAGATAT [TGCATGCA_site702]”, the “gcPBM binding intensity (ln)” value was found to be 8.79 ± 0.4.

For the sequence “AGTAAGAGGCATTAAGCATGCATATTATTATAAGCA [TGCATGCA_site237]”, the “gcPBM binding intensity (ln)” value came to 9.1 ± 0.23.

As for “CATTATAAGAGACACACACACATATATAAATATGTA [CACACA_site6621]”, the “gcPBM binding intensity (ln)” value was determined as 8.47 ± 0.34.

As for “TTATAAAATATATATACATGCACAAAATTATAAGTA [TGCATGCA_site294]”, the “gcPBM binding intensity (ln)” value was 9.11 ± 0.3.

In the case of “AATCAACATTTTTTTTGCTATTTTTTTTTTTAATTA [CACACA_negctrl_site891]”, the “gcPBM binding intensity (ln)” value was determined as 8.32 ± 0.52.

As to “AAAAAAACATAAAATACACACAACCTTAAGAATGTA [CACACA_site3293]”, the “gcPBM binding intensity (ln)” value is 8.57 ± 0.38.

As for “TATACACTTGTAATAACACACATTATTTTTTTTTTT [CACACA_site1324]”, the “gcPBM binding intensity (ln)” value was determined as 8.41 ± 0.41.

With “ATAAAAAATTTAAGTATTTTTTACAAACCTATAAAT [GTGCAC_negctrl_site51]”, the “gcPBM binding intensity (ln)” value turned out to be 8.18 ± 0.38.

As for “TTATATTTATATGTAATACAAAATAACAAAAAATTT [CACACA_negctrl_site1721]”, the “gcPBM binding intensity (ln)” value came out at 8.29 ± 0.46.

As for “TATATATATATATCCACACACATACATATATTAATA [CACACA_site69]”, the “gcPBM binding intensity (ln)” value came out at 10.2 ± 0.26.

In the case of “TTGGTAATTTTAAAATGTACTTATTATATATATATA [XGTACX_site5642]”, the “gcPBM binding intensity (ln)” value is 9.79 ± 0.61.

Take “ATTTTTTTTTGTTTAATGTTATGTGGTCATTAAATT [CACACA_negctrl_site1177]”: the “gcPBM binding intensity (ln)” value was determined as 8.63 ± 0.49.

With “TATTTATTCACTTATTGTACTTATATATATAATAAA [XGTACX_site6147]”, the “gcPBM binding intensity (ln)” value was 8.61 ± 0.51.

On to “AAATTAAAAGAAAATACACACCTGTGGGTGCTTATA [CACACA_site5143]”, for which the “gcPBM binding intensity (ln)” value stood at 8.44 ± 0.13.

Regarding “TTTTGTTGTTGTTGTTGTACATAAATAATAAAATAT [XGTACX_site8681]”, the “gcPBM binding intensity (ln)” value worked out at 8.59 ± 0.26.

Regarding “ATATATTTTTTTTAGCGTACATGCAAAAAAAAAAAA [XGTACX_site4590]”, the “gcPBM binding intensity (ln)” value amounted to 8.74 ± 0.32.

For “TCATAAATTAAACACACACACACATCTGGATACCCC [CACACA_site9096]”, the “gcPBM binding intensity (ln)” value came out at 9.2 ± 0.53.

With “AATTAACCGAAACACACACACATATATATATATATA [CACACA_site3963]”, the “gcPBM binding intensity (ln)” value came to 10 ± 0.39.

As to “TATACACACAGACATGCATGCACATATATATATACA [TGCATGCA_site30]”, the “gcPBM binding intensity (ln)” value was 9.94 ± 0.22.

As to “CATATTTTGAACTTCACACATATATATATATATATA [CACACA_site4228]”, the “gcPBM binding intensity (ln)” value was 10.2 ± 0.3.

As for “GGTAGATTATTATTAACGAAAAATGTTTTTAACATA [GTGCAC_negctrl_site216]”, the “gcPBM binding intensity (ln)” value worked out at 8.12 ± 0.41.

As for “AATAATTGTTATAGTTGTACAATACATATATTACAA [XGTACX_site30]”, the “gcPBM binding intensity (ln)” value is 8.48 ± 0.34.

Take “AATAATTGTAGACATGCACACACAAATATTATATAT [CACACA_site8181]”: the “gcPBM binding intensity (ln)” value was 8.89 ± 0.38.
